Laboratory results from patent US20240076343A1 (CEPHALON, published 2024).

T1: intermediate affinity hIL-2 receptor complex (IL-2Rβγ) on TF1+IL-2Rβ cells (human, UniProt P14784 27-551; P31785 23-369)
T1 sequence 1: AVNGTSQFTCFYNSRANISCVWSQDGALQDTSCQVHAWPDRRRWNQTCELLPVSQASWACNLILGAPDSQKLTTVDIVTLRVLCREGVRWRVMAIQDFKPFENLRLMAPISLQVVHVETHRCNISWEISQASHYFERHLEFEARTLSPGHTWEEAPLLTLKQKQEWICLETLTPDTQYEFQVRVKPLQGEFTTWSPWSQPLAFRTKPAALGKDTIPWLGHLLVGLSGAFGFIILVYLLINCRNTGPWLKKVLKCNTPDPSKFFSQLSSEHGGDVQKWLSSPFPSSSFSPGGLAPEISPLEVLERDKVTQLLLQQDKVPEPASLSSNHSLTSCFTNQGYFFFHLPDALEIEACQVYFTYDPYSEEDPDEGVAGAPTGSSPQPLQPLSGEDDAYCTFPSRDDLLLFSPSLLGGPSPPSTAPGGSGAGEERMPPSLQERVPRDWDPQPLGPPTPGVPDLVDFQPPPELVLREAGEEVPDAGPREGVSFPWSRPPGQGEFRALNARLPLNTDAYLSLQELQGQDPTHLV
T1 sequence 2: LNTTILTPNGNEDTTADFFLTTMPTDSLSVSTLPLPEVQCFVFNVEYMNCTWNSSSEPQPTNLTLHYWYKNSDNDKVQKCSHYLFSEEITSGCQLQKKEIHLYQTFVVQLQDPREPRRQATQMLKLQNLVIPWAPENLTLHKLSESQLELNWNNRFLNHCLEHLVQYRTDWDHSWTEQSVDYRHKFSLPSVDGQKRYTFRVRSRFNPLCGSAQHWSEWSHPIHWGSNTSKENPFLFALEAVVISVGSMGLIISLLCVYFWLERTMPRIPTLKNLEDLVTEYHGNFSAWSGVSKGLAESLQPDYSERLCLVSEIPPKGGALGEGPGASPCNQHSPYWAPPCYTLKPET

T2: high-affinity hIL-2 receptor (IL-2Rαβγ) on NK-92 cells (human, UniProt P01589 22-272; P14784 27-551; P31785 23-369)
T2 sequence 1: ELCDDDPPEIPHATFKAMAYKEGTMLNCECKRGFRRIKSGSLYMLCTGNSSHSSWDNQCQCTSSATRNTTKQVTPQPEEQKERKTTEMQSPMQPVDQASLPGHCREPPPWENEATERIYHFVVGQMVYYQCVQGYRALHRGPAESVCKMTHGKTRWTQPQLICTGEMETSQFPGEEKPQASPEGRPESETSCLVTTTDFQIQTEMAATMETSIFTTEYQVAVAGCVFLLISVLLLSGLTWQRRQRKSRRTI
T2 sequence 2: T1 sequence 1
T2 sequence 3: T1 sequence 2

T3: intermediate-affinity hIL-2 receptor (IL-2Rβγ) on TF1+IL-2Rβ cells (human, UniProt P14784 27-551; P31785 23-369)
T3 sequence 1: T1 sequence 1
T3 sequence 2: T1 sequence 2

T4: high-affinity hIL-2 receptor (IL-2Rαβγ) on NK-92 cells (human, UniProt P01589 22-272; P14784 27-551; P31785 23-369)
T4 sequence 1: T2 sequence 1
T4 sequence 2: T1 sequence 1
T4 sequence 3: T1 sequence 2

B1: 1H3-hIgG1-L6-hCD25(1-164)-L20-hIL-2 (D84K) (other)
heavy: EVQLVESGGGLVQPGRSLKLSCAVSGFTFSDYAMAWVRQAPKKGLEWVATISYDGSRTYYRDSVKGRFTISRDNAKITLYLQMDSLRSEDTATYYCARHGSGYFDYWGQGVMVTVSS[not shown - human IgG1 constant region]SGGGGSELCDDDPPEIPHATFKAMAYKEGTMLNCECKRGFRRIKSGSLYMLCTGNSSHSSWDNQCQCTSSATRNTTKQVTPQPEEQKERKTTEMQSPMQPVDQASLPGHCREPPPWENEATERIYHFVVGQMVYYQCVQGYRALHRGPAESVCKMTHGKTRWTQPQLICTSGGGGSGGGGSGGGGSGGGS[not shown - about 150 residues]
light: DTVLTQSPALAVSPGERVTISCRASESVRTGVHWYQQKPGQQPKLLIYGASNLESGVPARFSGSGSGTDFTLTIDPVEADDTATYFCQQSWNDPFTFGSGTKLEIKRTVAAPSVFIFPPSDEQLKSGTASVVCLLNNFYPREAKVQWKVDNALQSGNSQESVTEQDSKDSTYSLSSTLTLSKADYEKHKVYACEVTHQGLSSPVTKSFNRGEC
B2: 1H3-hIgG1-L6-hCD25(1-164)-L20-hIL-2 (S87A) (other)
heavy: EVQLVESGGGLVQPGRSLKLSCAVSGFTFSDYAMAWVRQAPKKGLEWVATISYDGSRTYYRDSVKGRFTISRDNAKITLYLQMDSLRSEDTATYYCARHGSGYFDYWGQGVMVTVSS[not shown - human IgG1 constant region]SGGGGSELCDDDPPEIPHATFKAMAYKEGTMLNCECKRGFRRIKSGSLYMLCTGNSSHSSWDNQCQCTSSATRNTTKQVTPQPEEQKERKTTEMQSPMQPVDQASLPGHCREPPPWENEATERIYHFVVGQMVYYQCVQGYRALHRGPAESVCKMTHGKTRWTQPQLICTSGGGGSGGGGSGGGGSGGGS[not shown - about 150 residues]
light: B1 light
B3: 1H3-hIgG1-L6-hCD25(1-164)-L20-hIL-2 (N88Y) (other)
heavy: EVQLVESGGGLVQPGRSLKLSCAVSGFTFSDYAMAWVRQAPKKGLEWVATISYDGSRTYYRDSVKGRFTISRDNAKITLYLQMDSLRSEDTATYYCARHGSGYFDYWGQGVMVTVSS[not shown - human IgG1 constant region]SGGGGSELCDDDPPEIPHATFKAMAYKEGTMLNCECKRGFRRIKSGSLYMLCTGNSSHSSWDNQCQCTSSATRNTTKQVTPQPEEQKERKTTEMQSPMQPVDQASLPGHCREPPPWENEATERIYHFVVGQMVYYQCVQGYRALHRGPAESVCKMTHGKTRWTQPQLICTSGGGGSGGGGSGGGGSGGGS[not shown - about 150 residues]
light: B1 light
B4: 1H3-hIgG1-L6-hCD25(1-164)-L20-hIL-2 (N88D) (other)
heavy: EVQLVESGGGLVQPGRSLKLSCAVSGFTFSDYAMAWVRQAPKKGLEWVATISYDGSRTYYRDSVKGRFTISRDNAKITLYLQMDSLRSEDTATYYCARHGSGYFDYWGQGVMVTVSS[not shown - human IgG1 constant region]SGGGGSELCDDDPPEIPHATFKAMAYKEGTMLNCECKRGFRRIKSGSLYMLCTGNSSHSSWDNQCQCTSSATRNTTKQVTPQPEEQKERKTTEMQSPMQPVDQASLPGHCREPPPWENEATERIYHFVVGQMVYYQCVQGYRALHRGPAESVCKMTHGKTRWTQPQLICTSGGGGSGGGGSGGGGSGGGS[not shown - about 150 residues]
light: B1 light
B5: 1H3-hIgG1-L6-hCD25(1-164)-L20-hIL-2 (N88R) (other)
heavy: EVQLVESGGGLVQPGRSLKLSCAVSGFTFSDYAMAWVRQAPKKGLEWVATISYDGSRTYYRDSVKGRFTISRDNAKITLYLQMDSLRSEDTATYYCARHGSGYFDYWGQGVMVTVSS[not shown - human IgG1 constant region]SGGGGSELCDDDPPEIPHATFKAMAYKEGTMLNCECKRGFRRIKSGSLYMLCTGNSSHSSWDNQCQCTSSATRNTTKQVTPQPEEQKERKTTEMQSPMQPVDQASLPGHCREPPPWENEATERIYHFVVGQMVYYQCVQGYRALHRGPAESVCKMTHGKTRWTQPQLICTSGGGGSGGGGSGGGGSGGGS[not shown - about 150 residues]
light: B1 light
B6: 1H3-hIgG1-L6-hCD25(1-164)-L20-hIL-2 (N88E) (other)
heavy: EVQLVESGGGLVQPGRSLKLSCAVSGFTFSDYAMAWVRQAPKKGLEWVATISYDGSRTYYRDSVKGRFTISRDNAKITLYLQMDSLRSEDTATYYCARHGSGYFDYWGQGVMVTVSS[not shown - human IgG1 constant region]SGGGGSELCDDDPPEIPHATFKAMAYKEGTMLNCECKRGFRRIKSGSLYMLCTGNSSHSSWDNQCQCTSSATRNTTKQVTPQPEEQKERKTTEMQSPMQPVDQASLPGHCREPPPWENEATERIYHFVVGQMVYYQCVQGYRALHRGPAESVCKMTHGKTRWTQPQLICTSGGGGSGGGGSGGGGSGGGS[not shown - about 150 residues]
light: B1 light
B7: 1H3-hIgG1-L6-hCD25(1-164)-L20-hIL-2 (N88F) (other)
heavy: EVQLVESGGGLVQPGRSLKLSCAVSGFTFSDYAMAWVRQAPKKGLEWVATISYDGSRTYYRDSVKGRFTISRDNAKITLYLQMDSLRSEDTATYYCARHGSGYFDYWGQGVMVTVSS[not shown - human IgG1 constant region]SGGGGSELCDDDPPEIPHATFKAMAYKEGTMLNCECKRGFRRIKSGSLYMLCTGNSSHSSWDNQCQCTSSATRNTTKQVTPQPEEQKERKTTEMQSPMQPVDQASLPGHCREPPPWENEATERIYHFVVGQMVYYQCVQGYRALHRGPAESVCKMTHGKTRWTQPQLICTSGGGGSGGGGSGGGGSGGGS[not shown - about 150 residues]
light: B1 light
B8: 1H3-hIgG1-L6-hCD25(1-164)-L20-hIL-2 (N88I) (other)
heavy: EVQLVESGGGLVQPGRSLKLSCAVSGFTFSDYAMAWVRQAPKKGLEWVATISYDGSRTYYRDSVKGRFTISRDNAKITLYLQMDSLRSEDTATYYCARHGSGYFDYWGQGVMVTVSS[not shown - human IgG1 constant region]SGGGGSELCDDDPPEIPHATFKAMAYKEGTMLNCECKRGFRRIKSGSLYMLCTGNSSHSSWDNQCQCTSSATRNTTKQVTPQPEEQKERKTTEMQSPMQPVDQASLPGHCREPPPWENEATERIYHFVVGQMVYYQCVQGYRALHRGPAESVCKMTHGKTRWTQPQLICTSGGGGSGGGGSGGGGSGGGS[not shown - about 150 residues]
light: B1 light
B9: 1H3-hIgG1-L6-hCD25(1-164)-L20-hIL-2 (I92A) (other)
heavy: EVQLVESGGGLVQPGRSLKLSCAVSGFTFSDYAMAWVRQAPKKGLEWVATISYDGSRTYYRDSVKGRFTISRDNAKITLYLQMDSLRSEDTATYYCARHGSGYFDYWGQGVMVTVSS[not shown - human IgG1 constant region]SGGGGSELCDDDPPEIPHATFKAMAYKEGTMLNCECKRGFRRIKSGSLYMLCTGNSSHSSWDNQCQCTSSATRNTTKQVTPQPEEQKERKTTEMQSPMQPVDQASLPGHCREPPPWENEATERIYHFVVGQMVYYQCVQGYRALHRGPAESVCKMTHGKTRWTQPQLICTSGGGGSGGGGSGGGGSGGGS[not shown - about 150 residues]
light: B1 light
B10: 1H3-hIgG1-L6-hCD25(1-164)-L20-hIL-2 (E95A) (other)
heavy: EVQLVESGGGLVQPGRSLKLSCAVSGFTFSDYAMAWVRQAPKKGLEWVATISYDGSRTYYRDSVKGRFTISRDNAKITLYLQMDSLRSEDTATYYCARHGSGYFDYWGQGVMVTVSS[not shown - human IgG1 constant region]SGGGGSELCDDDPPEIPHATFKAMAYKEGTMLNCECKRGFRRIKSGSLYMLCTGNSSHSSWDNQCQCTSSATRNTTKQVTPQPEEQKERKTTEMQSPMQPVDQASLPGHCREPPPWENEATERIYHFVVGQMVYYQCVQGYRALHRGPAESVCKMTHGKTRWTQPQLICTSGGGGSGGGGSGGGGSGGGS[not shown - about 150 residues]
light: B1 light
B11: 1H3-hIgG1-L6-hCD25(1-164)-L20-hIL-2 (E95K) (other)
heavy: EVQLVESGGGLVQPGRSLKLSCAVSGFTFSDYAMAWVRQAPKKGLEWVATISYDGSRTYYRDSVKGRFTISRDNAKITLYLQMDSLRSEDTATYYCARHGSGYFDYWGQGVMVTVSS[not shown - human IgG1 constant region]SGGGGSELCDDDPPEIPHATFKAMAYKEGTMLNCECKRGFRRIKSGSLYMLCTGNSSHSSWDNQCQCTSSATRNTTKQVTPQPEEQKERKTTEMQSPMQPVDQASLPGHCREPPPWENEATERIYHFVVGQMVYYQCVQGYRALHRGPAESVCKMTHGKTRWTQPQLICTSGGGGSGGGGSGGGGSGGGS[not shown - about 150 residues]
light: B1 light
B12: 1H3-hIgG1-L6-hIL-2 (D20A/R38E) (other)
heavy: EVQLVESGGGLVQPGRSLKLSCAVSGFTFSDYAMAWVRQAPKKGLEWVATISYDGSRTYYRDSVKGRFTISRDNAKITLYLQMDSLRSEDTATYYCARHGSGYFDYWGQGVMVTVSS[not shown - about 450 residues with a human IgG1 Fc and changes]
light: B1 light
B13: 1H3-hIgG1-L6-hIL-2 (D20Q/R38E) (other)
heavy: EVQLVESGGGLVQPGRSLKLSCAVSGFTFSDYAMAWVRQAPKKGLEWVATISYDGSRTYYRDSVKGRFTISRDNAKITLYLQMDSLRSEDTATYYCARHGSGYFDYWGQGVMVTVSS[not shown - about 450 residues with a human IgG1 Fc and changes]
light: B1 light

target: T1, intermediate affinity hIL-2 receptor …; test: cell-based or functional assay

| Binder | Fold change from hIL-2 (TF1 + IL-2Rβ) [fold] |
| --- | --- |
| B1 | 17 |
| B2 | 2 |
| B3 | 18 |
| B4 | 17 |
| B5 | 17 |
| B6 | 18 |
| B7 | 18 |
| B8 | 20 |
| B9 | 3 |
| B10 | 1 |
| B11 | 8 |

target: T2, high-affinity hIL-2 receptor (IL-2Rαβγ) …; test: cell-based or functional assay

| Binder | Fold change from hIL-2 (NK-92) [fold] |
| --- | --- |
| B1 | 23 |
| B2 | 17 |
| B3 | 23 |
| B4 | 23 |
| B5 | 24 |
| B6 | 25 |
| B7 | 25 |
| B8 | 25 |
| B9 | 15 |
| B10 | 14 |
| B11 | 25 |

target: T3, intermediate-affinity hIL-2 receptor …; test: cell-based or functional assay

| Binder | Fold decrease from rhIL-2 (TF1 + IL-2Rβ + hPD-1) [fold] |
| --- | --- |
| B12 | 297 |

target: T4, high-affinity hIL-2 receptor (IL-2Rαβγ) …; test: cell-based or functional assay

| Binder | Fold change from rhIL-2 (NK-92) [fold] |
| --- | --- |
| B13 | > 10000 |

target: T3, intermediate-affinity hIL-2 receptor …; test: cell-based or functional assay; remark: another data set of the same source

| Binder | Fold change from rhIL-2 (TF1 + IL-2Rβ) [fold] |
| --- | --- |
| B12 | > 10000 |
| B13 | 6660 |
